± gives the standard deviation of the averaged measurements. This is one part of the list.
These sequences were tested on PfAP2-I AP2 domain 3 (GST-tagged) (assay: gcPBM binding intensity (ln(normalized median fluorescence intensity)); higher = stronger DNA binding).
How it was run: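 Binding intensity is the highest Masliner-normalised natural-log median intensity over replicate spots in either probe orientation. To obtain it, GST-tagged P. falciparum DNA-binding domains made in E. coli were incubated for 1 h on an Agilent 4 × 180k array of primer-extended double-stranded 36-bp intergenic genomic probes plus negative controls. Detection used Alexa488 anti-GST antibody with scanning at 488 nm.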
“TCCTTGTTTGGTTTTTTTTTTTCTTCTTTTTTTTTT [CACACA_negctrl_site1355]” was tested, and the “gcPBM binding intensity (ln)” value was 7.61 ± 0.58. “TATGAAACGATATATGTGCACATGAGGGAATATAGA [GTGCAC_site9611]” was tested, and the “gcPBM binding intensity (ln)” value was 9.91 ± 0.58. With “TTAAATGTTATATATTGTACATATAATATATGTATT [XGTACX_site1492]” the “gcPBM binding intensity (ln)” value was 7.58 ± 0.29. With “ACACATACACATTAGGTGCACATAATTCAATATTAC [GTGCAC_site9862]” the “gcPBM binding intensity (ln)” value was 10.79 ± 0.078. In the case of “CATATAATATATCAATGTACATATATATTTTATAAA [XGTACX_site5901]”, the “gcPBM binding intensity (ln)” value is reported as 7.66 ± 0.41. For “TTAGCAACTATTACTACACACATTTTTATATAATTT [CACACA_site1372]”, the “gcPBM binding intensity (ln)” value was 7.61 ± 1. “TAATAAAAAAAGTGCACACACATAATATATATATAT [CACACA_site3340]” was tested, and the “gcPBM binding intensity (ln)” value was 9.93 ± 0.37. In the case of “TATAAATCAATATGTACACACATATACATGTTGAAT [CACACA_site7460]”, the “gcPBM binding intensity (ln)” value is reported as 7.61 ± 0.35. With “ATTATATACATATATATTGTATATACTATACATATG [XGTACX_negctrl_site545]” the “gcPBM binding intensity (ln)” value was 7.44 ± 0.48. With “ATTGTCAAAACACGCACACACATATACATAATAACA [CACACA_site1742]” the “gcPBM binding intensity (ln)” value was 8.2 ± 0.37. For “ATATATACCTATAACACACACATATTTATATTTATA [CACACA_site7257]”, the “gcPBM binding intensity (ln)” value was 7.96 ± 0.63. In the case of AAATAATATTGAAAAGTGCATATTTTTGTTGATATA, the “gcPBM binding intensity (ln)” value is reported as 9.15 ± 0.21. In the case of “AAATTTAAATAATGTGCGCATCTTAATATATATAAG [GTGCAC_site9890]”, the “gcPBM binding intensity (ln)” value is reported as 8.97 ± 0.7. With “TCTTATAACAAAAAAAAATAAAAAATAAAACTATAT [GTGCAC_negctrl_site11]” the “gcPBM binding intensity (ln)” value was 7.62 ± 0.66. In the case of “CATATAAATAGACACACACACACATATAAATAAATA [CACACA_site7156]”, the “gcPBM binding intensity (ln)” value is reported as 8.05 ± 0.17. With “TTTTCTATTTAATTGGTGCACTGATATATACACATA [GTGCAC_site9533]” the “gcPBM binding intensity (ln)” value was 11.3 ± 0.54. For “ATATAACATATTAATAATATATTTATAATATGTTTA [GTGCAC_negctrl_site168]”, the “gcPBM binding intensity (ln)” value was 7.43 ± 0.29. For “TTATGTTATATATACACACACAAAAGAAAAAAAAAA [CACACA_site2987]”, the “gcPBM binding intensity (ln)” value was 7.96 ± 0.57. “AGGTTAAAAATAAATACACACATTTGATGTCTGTAT [CACACA_site6596]” was tested, and the “gcPBM binding intensity (ln)” value was 7.43 ± 0.52. “TTTTGAGAATATATGGGTACAAATAAATAAAAATAT [XGTACX_site1933]” was tested, and the “gcPBM binding intensity (ln)” value was 8.14 ± 0.57. With “ATATAAATAAAGAAATATATATATATATATATATAT [GTGCAC_negctrl_site668]” the “gcPBM binding intensity (ln)” value was 9.19 ± 0.42. In the case of “AACGCTTATTAGTTGTTGTATATGTGTTCACATATT [CACACA_negctrl_site379]”, the “gcPBM binding intensity (ln)” value is reported as 7.54 ± 0.67. “AAAAAACACGGACACACACACATATACATACATACA [CACACA_site5470]” was tested, and the “gcPBM binding intensity (ln)” value was 8.72 ± 0.52. For “ATTTATAGAGCTATATGTACATATATATATATTATT [XGTACX_site3704]”, the “gcPBM binding intensity (ln)” value was 7.83 ± 0.43. With “AATATAAATAATGTTAAACACACATACCGATATATA [CACACA_site8869]” the “gcPBM binding intensity (ln)” value was 7.5 ± 0.64. “AAAAGGTGGAAAAATGCATGCAGGCTATTCTATATA [TGCATGCA_site1034]” was tested, and the “gcPBM binding intensity (ln)” value was 8.48 ± 1.1. For “TTCCACCAATATATATGTACTTATAATATATATATA [XGTACX_site8700]”, the “gcPBM binding intensity (ln)” value was 8.98 ± 0.028. “AATTACATATAATACTGTACGCTAATAAGAAAAAAA [XGTACX_site7413]” was tested, and the “gcPBM binding intensity (ln)” value was 8.12 ± 0.19. In the case of “ACACATGTATTTGGTGCATGTTGTTAAAAAAATATT [TGCATGCA_site795]”, the “gcPBM binding intensity (ln)” value is reported as 9.37 ± 0.071. With “TCATAGCTAGGATAACGTACAGAAAAGTGAAAAATT [XGTACX_site3322]” the “gcPBM binding intensity (ln)” value was 8.19 ± 0.95. In the case of “ATTCTAGTAATATATGTATATTTATATATGTATGTG [XGTACX_negctrl_site419]”, the “gcPBM binding intensity (ln)” value is reported as 7.65 ± 0.31. For “TTTTTTTTTTGTTGTTGTACTCTTATATTTTTATAT [XGTACX_site6178]”, the “gcPBM binding intensity (ln)” value was 8.18 ± 0.64. In the case of “GATCTATTGAGTGATACATGCAGGAAAATTAAAAAC [TGCATGCA_site729]”, the “gcPBM binding intensity (ln)” value is reported as 8.69 ± 1.3. With “AAAAAGAAAAAAGAAAGTACAAATATACACATTTTT [XGTACX_site3343]” the “gcPBM binding intensity (ln)” value was 7.44 ± 0.64. With “TTTTTATTATAAGGTCGTACAATTGTAATTATTGTA [XGTACX_site1413]” the “gcPBM binding intensity (ln)” value was 7.78 ± 0.22. “TTTTTTTTTTTATGCTCACACATTAATTTTTATACA [CACACA_site4527]” was tested, and the “gcPBM binding intensity (ln)” value was 8.11 ± 0.61. “TATGTATGTATGTATGTATGCATGTCTAACACCTAA [TGCATGCA_site360]” was tested, and the “gcPBM binding intensity (ln)” value was 8.27 ± 0.71. In the case of “TTTTTTTTTTTTTTTTAACACACATATATATATTTT [CACACA_site8585]”, the “gcPBM binding intensity (ln)” value is reported as 8.26 ± 0.67. With “ATAAAAGATTTATACATACACACATATTATATTCAC [CACACA_site3714]” the “gcPBM binding intensity (ln)” value was 7.76 ± 0.53. “ATATATATGTATATAACATGCAACATTTAATAATAA [TGCATGCA_site1018]” was tested, and the “gcPBM binding intensity (ln)” value was 7.88 ± 0.49. For “TGTTTTTGTGATCATATGAAAAAATTACCTACAAGG [CACACA_negctrl_site279]”, the “gcPBM binding intensity (ln)” value was 7.88 ± 0.5. “ATAGTTTTACACATTTGTACATAATTTACAACAAAA [XGTACX_site25]” was tested, and the “gcPBM binding intensity (ln)” value was 8.04 ± 0.54. With “ATAGTATCTGGTAGCTGTACGAGTCGTATAGTGCAG [XGTACX_site2542]” the “gcPBM binding intensity (ln)” value was 9.36 ± 0.014. In the case of “TTTCCGTATAATTTTGCACACGAATATAAATTTGAT [CACACA_site137]”, the “gcPBM binding intensity (ln)” value is reported as 9.21 ± 0.014.
